Results published in patent US20090170069A1 (ARIZONA BOARD OF REGENTS ON BEHALF OF THE UNIVERSITY OF …, published 2009).

Target: T1, FRB-NFluc (human; firefly, UniProt P42345 2024-2113; P08659 2-416 = luciferase)
T1 construct: range 2024-2113;range 2-416
Experiment: cell-free split-luciferase reassembly; interaction depends on rapamycin

binding result: binds
B1: CFluc-FKBP (other, firefly;human, not shown: small tags and cut ends)
chain: MSGYVNNPEATNALIDKDGWLHSGDIAYWDEDEHFFIVDRLKSLIKYKGYQVAPAELESILLQHPNIFDAGVAGLPDDDAGELPAAVVVLEHGKTMTEKEIVDYVASQVTTAKKLRGGVVFVDEVPKGLTGKLDARKIREILIKAKKGGKSK[about 100 residues omitted]
